Test system: New Zealand White rabbits
Settings: rabbit, in vivo

In the case of `C[C@@H]1C[C@H]2[C@@H]3CCC4=CC(=O)C=C[C@]4(C)[C@@]3(F)[C@@H](O)C[C@]2(C)[C@@]1(O)C(=O)COP(=O)(O)O` [DSP, dexamethasone sodium phosphate], the body weight change was “no significant weight changes”.

From patent US20190105194A1, “METHODS OF TREATING A SUBJECT WITH AN OCULAR CONDITION RESPONSIVE TO STEROID THERAPY” (Aciont Inc., priority 2017, published 2019)
